From US20080085246A1, “Use of Eugenol Acetate as an Agent Against Bad Breath” (SYMRISE GMBH & CO. KG, priority 2004, published 2008)

Tested on: liquid medium inoculated with fresh morning saliva
Test: In vitro test for reduction of bad breath (inoculated medium smelled by a panel of testers)
Conditions: 0.05% added to inoculated samples, 37 °C for some days
Method: The test is based on the work of Goldberg and Rosenberg (Production of Oral Malodor in an in vitro System, S. Goldberg and M. Rosenberg, pp.143-150, in: Bad Breath—A Multidisciplinary Approach, eds: D. van Steenberghe, M. Rosenberg, Leuven University Press, 1996) and was adapted for better reproducibility.
A sterile liquid medium inoculated with fresh morning saliva is incubated at 37 ° C. for some days and then smelled by a panel of testers.
An intensive, typical bad breath odour had formed. Non-inoculated controls have only a weak smell of the medium.
Triclosan® (5-chloro-2-(2,4-dichlorophenoxy)phenol) was added to inoculated samples in a concentration of 0.05% as a control for the tests.

For `Oc1cc(Cl)ccc1Oc1ccc(Cl)cc1Cl` [Triclosan®, 5-chloro-2-(2,4-dichlorophenoxy)phenol, reference compound], the “smell after the incubation time” value was “same weak media smell as the non-inoculated samples”.
